# Source: PubChem BioAssay AID485294 (National Center for Advancing Translational Sciences (NCATS), 2010)
# Where “and” joins values, the source holds several entries; their conditions need not be identical. Equal values may be shown once. Hit rate of the full screen: of about 370,000 compounds, about 150 (0.041%) were called active. The shares of active, inactive and inconclusive entries below differ from those in the screen. Calls come from the whole dose curve; as a rule, active = well fitted inhibition curve with a large enough effect; inconclusive = small, poorly fitted or top-dose-only effect; inactive = flat fitted curve, though single readings scatter. A potency beside an inconclusive call is a rough fit, not a confirmed value.
# Biological target: Beta-lactamase (Escherichia coli (strain K12)) (UniProt P00811)
# Sequence of UniProt P00811 (P00811 whole entry, looked up): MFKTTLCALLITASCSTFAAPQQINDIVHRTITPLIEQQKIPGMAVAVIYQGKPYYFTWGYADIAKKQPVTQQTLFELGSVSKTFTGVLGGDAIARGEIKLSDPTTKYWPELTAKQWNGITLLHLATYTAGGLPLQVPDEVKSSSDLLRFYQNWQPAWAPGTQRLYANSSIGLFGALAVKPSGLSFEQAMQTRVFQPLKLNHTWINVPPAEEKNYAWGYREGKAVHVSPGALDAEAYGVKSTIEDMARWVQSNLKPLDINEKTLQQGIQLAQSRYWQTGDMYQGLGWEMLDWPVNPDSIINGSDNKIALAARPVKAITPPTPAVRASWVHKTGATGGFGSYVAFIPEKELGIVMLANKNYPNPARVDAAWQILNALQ
# Assay: qHTS Inhibitors of AmpC Beta-Lactamase (assay with detergent); note: nearly all actives have a fitted effect of over 25% in size
# Conditions: AmpC hydrolysis of nitrocefin, absorbance 480 nm, 0.01% Triton; series mostly up to 114 µM
# In short: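 20 mM phosphate pH 7.0 + 0.01% (detergent screen) or 0.0001% Triton X-100; 5.3 nM AmpC reagent; cpd preinc 15 min RT; nitrocefin (800 uM stock) to start; A480 q20 s × 4 min; Activity was normalised to no-enzyme and no-compound control wells.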
# Potency is the fitted concentration of half-maximal effect; tags give direction and shape of the fitted curve.
row,Structure (SMILES),Potency
1,COc1cccc(NC(=O)CSc2nc(=O)n(Cc3cccnc3)c3c2CCC3)c1,inactive
2,CCC(C)NCC(O)(c1ccc(Cl)cc1)c1ccc(Cl)cc1 (stereo not drawn),inactive
3,CCSc1nc(N)c(C#N)c(-c2ccccc2Cl)c1C#N,"inconclusive: 39.8 µM [inhibitor, single point]"
4,Cc1ccc(OCCCC(=O)Nc2ccc(S(=O)(=O)Nc3cc(C)on3)cc2)cc1,"inconclusive: 5.01 µM [inhibitor, full curve]"
5,COc1cc(C)c(C)cc1S(=O)(=O)N1CCCCC1c1cccnc1 (stereo not drawn),"inconclusive: 89.1 µM [inhibitor, single point]"
6,CCC(c1nnnn1CCOC)N1CCN(c2nc3ccccc3s2)CC1 (stereo not drawn),"inconclusive: 4.47 µM [inhibitor, full curve, poor fit]"
7,Cc1ccc(-c2nnn(CC(=O)Nc3ccc(S(=O)(=O)N4CCC(C)CC4)cc3)n2)cc1,"inconclusive: 3.16 µM [inhibitor, full curve]"
8,O=C(Nc1ncccc1O)c1c(O)c2ccccc2[nH]c1=O,inactive
9,CCC(=O)Nc1c(-c2ccc(C)cc2)nc2ccc(C)cn12,"inconclusive: 5.62 µM [inhibitor, full curve, poor fit]"
10,Cc1ccc(C(=O)Oc2ccc3ccc(=O)oc3c2)cc1,inactive
11,COc1ccc(NC(=S)N(CCCN2CCOCC2)Cc2cn(C)c3ccccc23)cc1OC,"inconclusive: 0.708 µM [inhibitor, full curve, poor fit]"
12,COc1ccc(-n2c(Cc3cccn3C)nnc2SCC(=O)NCc2ccco2)cc1,"inconclusive: 5.01 µM [inhibitor, full curve, poor fit]"
13,Cc1nc(SCC(=O)N2CCC(Cc3ccccc3)CC2)[nH]c(=O)c1C,"inconclusive: 79.4 µM [inhibitor, partial curve, poor fit]"
14,CCOC(=O)c1cccnc1SCC(=O)N(CC)c1cccc(C)c1,"inactive and inconclusive: 8.91 µM [inhibitor, full curve]"
15,Cc1cccc(CCNC(=O)c2oc3c(C)c(C)ccc3c2C)n1,"inconclusive: 0.316 µM [inhibitor, full curve]"
16,CCCNC(=O)NS(=O)(=O)c1cnccc1Sc1ccc(Cl)cc1,"inconclusive: 63.1 µM [inhibitor, partial curve]"
17,Cc1ccc(C)c(N2CCN(C(=O)CCc3nnc4n(C)c(=O)c5ccccc5n34)CC2)c1,inactive
18,O=C(NC(Cc1ccccc1)C(=O)O)/C(=C/c1ccccc1)NC(=O)c1ccco1 (stereo not drawn),inactive
19,COc1ccccc1NC(=O)COC(=O)c1ccc2c(c1)nc(C)n2-c1ccccc1,"inconclusive: 89.1 µM [inhibitor, partial curve, poor fit]"
20,CCn1c(=O)c(C(=O)Nc2ncccc2O)c(O)c2ccccc21,"inconclusive: 2.24 µM [inhibitor, full curve, poor fit]"
21,O=C(O)C1CCC(=O)N1C1c2ccccc2Oc2ccccc21 (stereo not drawn),inactive
22,COCCn1nnnc1C(c1ccccn1)N1CCN(c2cc(Cl)ccc2C)CC1 (stereo not drawn),"inconclusive: 0.631 µM [inhibitor, full curve, poor fit]"
23,O=C(CSc1nc2ccccc2[nH]1)Nc1nc(-c2ccc(Br)cc2)cs1,"inconclusive: 89.1 µM [inhibitor, single point]"

row,Structure (SMILES),Potency
1,COc1ccc2[nH]c(=O)c(CN(C(=O)C3CCCO3)c3ccc(C)cc3)cc2c1 (stereo not drawn),"inconclusive: 28.2 µM [inhibitor, full curve, poor fit]"
2,CCCP(=O)(CC(=O)O)c1ccccc1 (stereo not drawn),"inconclusive: 0.631 µM [inhibitor, full curve, poor fit]"
3,CCN(CC)CCCNCC(=O)Nc1ccc2c(c1)CCC2,inactive
4,O=c1c2[nH]c3ccccc3c2ncn1CCC1=CCCCC1,"inconclusive: 89.1 µM [inhibitor, single point]"
5,CCOC(=O)c1sc(-c2ccccc2)cc1NC(=O)Nc1ccc([N+](=O)[O-])cc1,"inconclusive: 4.47 µM [inhibitor, full curve, poor fit]"
6,Cc1cc(=O)[nH]c(S/C=C/c2ccccc2)n1,inactive
7,CC(=O)c1ccccc1OCc1ccc(S(=O)(=O)Cc2ccccc2)cc1,"inconclusive: 17.8 µM [inhibitor, partial curve]"
8,CCOc1c(Br)cc(C2C=C(C(=O)O)Nc3ncnn32)cc1OC (stereo not drawn),inactive
9,O=C(Nc1nccs1)c1c(O)c2cccc3c2n(c1=O)CCC3,"inconclusive: 89.1 µM [inhibitor, partial curve, poor fit]"
10,O=C(OCCOc1ccccc1)c1cccc(S(=O)(=O)N2CCOCC2)c1,"inconclusive: 0.631 µM [inhibitor, full curve, poor fit]"
11,COCCn1nnnc1C(c1ccccn1)N1CCN(c2cc(C)ccc2C)CC1 (stereo not drawn),"inconclusive: 0.708 µM [inhibitor, full curve, poor fit]"
12,COc1ccccc1NC(=O)C(C)OC(=O)c1cccc(-n2cnnn2)c1 (stereo not drawn),"inconclusive: 112 µM [inhibitor, partial curve, poor fit]"
13,Oc1c(Cl)cc(Cl)cc1CNc1ccccn1,"inconclusive: 25.1 µM [inhibitor, full curve, poor fit]"
14,COCCC(=O)N1CCCC(CNS(=O)(=O)c2ccc(OC)cc2)C1 (stereo not drawn),inactive
15,CCOc1ccccc1NC(=O)Cn1nnc(C(=O)NCc2cccs2)c1N,"inconclusive: 0.631 µM [inhibitor, full curve, poor fit]"
16,COC(=O)C1=C(N)OC2=C(C(=O)CC(C)(C)C2)C1c1cccnc1 (stereo not drawn),"inconclusive: 0.708 µM [inhibitor, full curve, poor fit]"
17,COc1ccccc1-n1c(-c2cccs2)nc2ccccc2c1=O,"inconclusive: 1.26 µM [inhibitor, full curve]"
18,Cc1cc(-c2nc(-c3ccc(C(C)(C)C)cc3)no2)no1,inactive
19,Cc1ccc(NC(=O)C2C3C=CC4(O3)C2C(=O)N(CCCN2CCCC(C)C2)C4C(=O)NC2CCCCC2)cc1 (stereo not drawn),"inconclusive: 2.24 µM [inhibitor, full curve, poor fit]"
20,NC(=NCCc1ccccc1)NS(=O)(=O)c1ccccc1,inactive
21,Cc1ccc(NC(=O)CSc2nc3ccccc3c(=O)n2CCCC(=O)N2CCCC2)cc1,inactive
22,Nc1ccccc1-c1ccccc1N,inactive
23,Cc1c(C(=O)OCC(=O)N(C)c2ccccc2)oc2ccccc12,inactive

row,Structure (SMILES),Potency
1,Nc1c(N(CCC2=CCCCC2)C(=O)c2ccc([N+](=O)[O-])o2)c(=O)[nH]c(=O)n1Cc1ccccc1,"inconclusive: 0.631 µM [inhibitor, full curve, poor fit]"
2,CCOc1ccccc1NC(=O)c1nc(S(=O)(=O)Cc2cccc(C)c2)ncc1Cl,inactive
3,Cc1cccc(N2CC(C(=O)Nc3nnc(SCCC4OCCO4)s3)CC2=O)c1 (stereo not drawn),inactive
4,CCc1c(-c2ccccc2)nc2ccccc2c1C(=O)NC(C)c1ccccc1 (stereo not drawn),inactive
5,CCOc1ccc(CC(=O)Nc2c(C(N)=O)oc3ccc(Br)cc23)cc1OCC,inactive
6,Cc1ccc(-c2cc(C(=O)NCc3ccccn3)no2)cc1,"inconclusive: 79.4 µM [inhibitor, single point]"
7,CCn1c(SCc2c(F)cccc2Cl)nnc1-c1ccco1,inactive
8,COc1cccc(NC(=O)C2COc3ccccc3O2)c1 (stereo not drawn),"inconclusive: 0.631 µM [inhibitor, full curve, poor fit]"
9,Cc1ccc(NC(=O)Cn2cc(S(=O)(=O)c3ccccc3)c(=O)c3cc(F)ccc32)cc1,"inconclusive: 89.1 µM [inhibitor, partial curve, poor fit]"
10,Cc1ccc(S(=O)(=O)N2CCN(C(=O)COC(=O)CC(C)c3ccccc3)CC2)c(C)c1 (stereo not drawn),"inconclusive: 5.01 µM [inhibitor, full curve, poor fit]"
11,CC(=O)c1ccc(S(=O)(=O)N(C)CC(=O)N2CCCCCC2)cc1,inactive
12,Cc1ccc(N(C(=O)c2ccc3c(c2)OCO3)C2C=CS(=O)(=O)C2)cc1 (stereo not drawn),"inconclusive: 0.631 µM [inhibitor, full curve, poor fit]"
13,CC(=O)c1ccc(NC(=O)c2cccc(NC(=O)c3ccccc3)c2)cc1,"inconclusive: 44.7 µM [inhibitor, partial curve, poor fit]"
14,Cc1cccc(C(=O)N[C@H](C(=O)OCC(=O)NC2CCS(=O)(=O)C2)C(C)C)c1 (stereo partly drawn),"inconclusive: 0.316 µM [inhibitor, full curve, poor fit]"
15,COc1ccnc(Oc2ccccc2)c1C#N,"inconclusive: 56.2 µM [inhibitor, partial curve, poor fit]"
16,Cc1cc2c(cc1S(=O)(=O)N(CCN(C)C)Cc1ccccc1)OCC(=O)N2,inactive
17,CC(=O)Nc1ccc(NS(=O)(=O)c2ccc3c(c2)oc(=O)n3C)cc1,inactive
18,Cc1cccc(-c2c3c(=O)n(C)c(=O)n(C)c3cn2C(C)(C)C)c1,"inconclusive: 0.708 µM [inhibitor, full curve, poor fit]"
19,CCCOC(=O)COc1cc(C)cc2oc(=O)c3c(c12)CCC3,"inconclusive: 0.631 µM [inhibitor, full curve, poor fit]"
20,COC(=O)C1=C(C)OC(N)=C(C#N)C1c1ccccc1F (stereo not drawn),"inconclusive: 100 µM [inhibitor, partial curve, poor fit]"
21,O=C1CC(c2ccco2)CC(O)=C1C=NCCN1CCN(C(=O)Nc2ccc(Cl)cc2)CC1 (stereo not drawn),"inconclusive: 63.1 µM [inhibitor, partial curve, poor fit]"
22,CC1CCN(S(=O)(=O)c2cccc(C(=O)O)c2)CC1,"inconclusive: 2.82 µM [inhibitor, partial curve, poor fit]"
